Data reported in PubChem BioAssay AID504333 (National Center for Advancing Translational Sciences (NCATS), 2011).
Values joined by “and” are separate entries in the source; they are usually repeats but may differ in a detail not shown here. Equal entries are not always repeated. The whole screen tested about 360,000 compounds, of which about 16,000 (4.4%) were called active. This list was built around the results that the source calls inconclusive (neither active nor inactive); the mix of calls is not that of the screen. The call rests on the fitted dose curve; in most records, active means well fitted inhibition curve with a large enough effect; inconclusive means small, poorly fitted or top-dose-only effect; inactive means no such curve, though single readings can be large or run the other way. Potencies beside an inconclusive call are fits to weak or partial responses and may not hold up.

Target: Bromodomain adjacent to zinc finger domain protein 2B (Homo sapiens) (UniProt Q9UIF8)
Chain of UniProt Q9UIF8 (Q9UIF8 whole entry, looked up, the tested form may be a part): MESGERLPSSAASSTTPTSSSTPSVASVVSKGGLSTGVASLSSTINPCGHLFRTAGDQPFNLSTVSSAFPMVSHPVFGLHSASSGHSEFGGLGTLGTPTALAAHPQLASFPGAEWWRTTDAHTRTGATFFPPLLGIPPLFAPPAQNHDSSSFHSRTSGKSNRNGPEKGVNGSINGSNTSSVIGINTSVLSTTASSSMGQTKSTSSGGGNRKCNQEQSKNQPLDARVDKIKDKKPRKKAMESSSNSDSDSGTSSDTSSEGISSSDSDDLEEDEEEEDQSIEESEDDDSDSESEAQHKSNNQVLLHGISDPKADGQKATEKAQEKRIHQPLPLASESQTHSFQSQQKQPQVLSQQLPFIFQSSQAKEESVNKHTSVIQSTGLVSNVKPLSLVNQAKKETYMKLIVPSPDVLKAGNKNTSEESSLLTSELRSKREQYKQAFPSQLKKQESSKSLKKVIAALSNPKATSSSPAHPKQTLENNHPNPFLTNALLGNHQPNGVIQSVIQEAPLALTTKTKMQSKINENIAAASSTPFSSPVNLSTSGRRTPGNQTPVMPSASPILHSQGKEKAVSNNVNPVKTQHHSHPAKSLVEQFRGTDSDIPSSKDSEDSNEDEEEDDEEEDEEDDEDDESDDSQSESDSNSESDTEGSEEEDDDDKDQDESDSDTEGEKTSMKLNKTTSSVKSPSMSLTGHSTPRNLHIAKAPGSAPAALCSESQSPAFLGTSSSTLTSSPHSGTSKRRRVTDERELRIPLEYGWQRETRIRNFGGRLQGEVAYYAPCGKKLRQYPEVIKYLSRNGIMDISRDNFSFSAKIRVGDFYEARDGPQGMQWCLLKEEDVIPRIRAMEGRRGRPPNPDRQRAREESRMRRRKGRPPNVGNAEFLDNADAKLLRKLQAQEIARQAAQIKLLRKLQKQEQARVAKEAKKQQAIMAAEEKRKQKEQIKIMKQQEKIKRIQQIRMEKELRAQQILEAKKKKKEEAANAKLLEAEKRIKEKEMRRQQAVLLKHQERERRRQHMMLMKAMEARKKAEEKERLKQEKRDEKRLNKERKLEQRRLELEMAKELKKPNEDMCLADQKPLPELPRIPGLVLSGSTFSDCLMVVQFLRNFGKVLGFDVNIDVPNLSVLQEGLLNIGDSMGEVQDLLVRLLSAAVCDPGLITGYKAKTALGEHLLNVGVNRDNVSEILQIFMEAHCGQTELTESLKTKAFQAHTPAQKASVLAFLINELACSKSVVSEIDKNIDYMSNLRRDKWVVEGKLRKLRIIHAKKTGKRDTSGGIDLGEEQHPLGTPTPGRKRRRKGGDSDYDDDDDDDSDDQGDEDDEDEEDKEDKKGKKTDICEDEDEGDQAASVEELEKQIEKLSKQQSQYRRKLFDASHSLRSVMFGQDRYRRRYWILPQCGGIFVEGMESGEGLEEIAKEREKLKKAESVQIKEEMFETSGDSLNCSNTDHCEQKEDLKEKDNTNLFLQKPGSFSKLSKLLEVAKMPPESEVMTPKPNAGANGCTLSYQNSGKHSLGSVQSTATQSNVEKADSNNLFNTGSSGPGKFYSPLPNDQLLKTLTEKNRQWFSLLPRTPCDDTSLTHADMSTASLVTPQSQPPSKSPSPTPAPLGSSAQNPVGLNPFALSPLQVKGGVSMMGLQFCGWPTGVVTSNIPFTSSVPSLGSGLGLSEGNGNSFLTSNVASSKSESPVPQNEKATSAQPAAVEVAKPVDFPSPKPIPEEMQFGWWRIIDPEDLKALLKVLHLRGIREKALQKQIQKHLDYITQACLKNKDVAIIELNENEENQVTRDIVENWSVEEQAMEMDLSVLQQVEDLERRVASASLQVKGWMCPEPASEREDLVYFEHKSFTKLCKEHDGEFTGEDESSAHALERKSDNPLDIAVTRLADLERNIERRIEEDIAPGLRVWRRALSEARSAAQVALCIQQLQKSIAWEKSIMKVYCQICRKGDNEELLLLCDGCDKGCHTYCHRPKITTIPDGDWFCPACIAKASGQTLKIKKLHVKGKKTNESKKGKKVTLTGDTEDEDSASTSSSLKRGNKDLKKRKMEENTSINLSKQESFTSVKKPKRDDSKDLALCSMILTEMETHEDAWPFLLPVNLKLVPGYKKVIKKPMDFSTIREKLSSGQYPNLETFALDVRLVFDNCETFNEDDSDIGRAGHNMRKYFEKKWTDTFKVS
Test: qHTS Assay for Inhibitors of BAZ2B; further: nearly all actives have a fitted effect of over 60% in size
Details: AlphaScreen BAZ2B-H3K14Ac peptide displacement; series mostly up to 114 µM
Outline: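 Inhibition is scored as reduced AlphaScreen emission. The BAZ2B/b-H3(5-23)K14Ac complex (50 nM each) in PBS pH 7.4, 0.01% Tween-20 meets compound (up to 110 uM) for 30 min at RT before bead addition.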
Potency means the concentration at half of the fitted maximal effect; tags describe the fitted curve by direction and shape.

Row | SMILES | Potency
1 | Cn1c(C(=O)N2CCC(C(=O)NCc3ccccc3)CC2)cc2sccc21 | inconclusive: 79.4 µM [inhibitor, single point]
2 | O=C(O)c1ccc2c(c1)C(=O)N(c1ccccc1-c1ccccc1)C2=O | inconclusive: 79.4 µM [inhibitor, partial curve]
3 | CN1CCN(C(=O)CCS(=O)(=O)c2cc3c(cc2Cl)NC(=O)CO3)CC1 | inactive
4 | CCOC(=O)CC1=NN(c2ccccc2)C(=O)C1 | inactive
5 | O=C(Nc1ccc(O)cc1)c1cc2ccccc2c(=O)s1 | inactive
6 | CCCCS(=O)CC(COC)OC(=O)c1ccccc1 (stereo not drawn) | inconclusive: 89.1 µM [inhibitor, single point]
7 | CCCCC(CCC(=O)O)(C(=O)OCC)c1csc(Nc2ccccc2)n1 (stereo not drawn) | inactive
8 | CC(C)CCc1noc(CN2CCC(C(=O)N3CCOCC3)CC2)n1 | inactive
9 | O=C(OCc1cc(=O)n2c(n1)sc1ccccc12)c1ccc2c(=O)n3c(nc2c1)CCC3 | inconclusive: 79.4 µM [inhibitor, single point]
10 | CNc1c2c(nn1C)CCCC2 | inconclusive: 89.1 µM [inhibitor, single point]
11 | Cc1cc(C)c(NS(=O)(=O)c2ccc3c(c2)NC(=O)C(C)C(=O)N3)c(C)c1 (stereo not drawn) | inconclusive: 70.8 µM [inhibitor, single point]
12 | C/C(=N/Nc1ccccc1[N+](=O)[O-])c1ccc([N+](=O)[O-])cc1 | inconclusive: 3.16 µM [inhibitor, full curve]
13 | COc1cc(/C=N/Nc2nc3ccccc3s2)ccc1OC(=O)c1ccccc1F | inconclusive: 39.8 µM [inhibitor, full curve, poor fit]
14 | COc1ccc2c(c1)CC(C)C/C2=N\NC(=O)c1ccco1 (stereo not drawn) | inconclusive: 3.55 µM [inhibitor, single point]
15 | CC(C)=CCc1c2c(c3occ(-c4ccc(O)cc4)c(=O)c3c1O)C=CC(C)(C)O2 | inconclusive: 50.1 µM [inhibitor, partial curve]
16 | CN(C)S(=O)(=O)c1ccc2c(c1)N(CC(=O)NCc1ccc(F)cc1)C(=O)CS2 | inactive
17 | COc1ccc(C)cc1NC(=O)Cn1c(=O)c(C(F)(F)F)nc2ccccc21 | inactive
18 | Cc1ccc(CN2CCCn3nc(C(=O)NC(C)C)cc3C2=O)cc1 | inactive
19 | CC1CCCC(C)N1C(=C(Cl)Cl)C(=C1SCCS1)[N+](=O)[O-] (stereo not drawn) | active: 17.8 µM
20 | Cc1cc(C(C)(C)C)cc(S(=O)(=O)Nc2ccc(C(=O)O)cc2)c1C | inconclusive: 79.4 µM [inhibitor, single point]
21 | COC(=O)[C@@H](NC(=O)/C=C/c1ccc(OC)cc1)C(C)C | inactive
22 | O=C(N/N=C/C(Cl)=C/c1ccc([N+](=O)[O-])cc1)C(=O)Nc1ccc(C(=O)O)cc1 | inconclusive: 56.2 µM [inhibitor, partial curve]
23 | O=C(Nc1ccccc1Br)c1ccc(N2CCCC2=O)cc1 | inactive
24 | CN1CCN(c2c(F)cc3c(=O)c(C(=O)O)cn4c3c2SCC4)CC1 | inactive and inconclusive: 89.1 µM [inhibitor, single point]
25 | C=CCOc1cccc(C2/C(=C(/O)c3ccc4c(c3)CC(C)O4)C(=O)C(=O)N2CCN2CCOCC2)c1 (stereo not drawn) | inactive

Row | SMILES | Potency
26 | O=C(O)c1ccccc1C(=O)Nc1nc(-c2ccc3ccccc3c2)cs1 | inconclusive: 79.4 µM [inhibitor, single point]
27 | O=C(Nc1ccc2oc(-c3cccnc3)nc2c1)c1ccc(Br)cc1 | inactive
28 | O=C1C(NS(=O)(=O)c2cccs2)=C(N2CCN(c3cccc(Cl)c3)CC2)C(=O)c2ccccc21 | active: 8.91 µM
29 | Cc1ccc(-c2ccnc(=S)[nH]2)cc1 | inactive
30 | COc1ccc(CCNc2nc3ccccc3n3nnnc23)cc1OC | inactive
31 | Cc1cc(C)c2c(-n3cccc3)c(C(=O)NNS(=O)(=O)c3ccc(Br)cc3)sc2n1 | inconclusive: 89.1 µM [inhibitor, single point]
32 | Cc1ccc(/C=C2\SC(=S)N(C(Cc3ccccc3)C(=O)O)C2=O)cc1 (stereo not drawn) | inconclusive: 39.8 µM [inhibitor, partial curve]
33 | CC(C)(C)C1CCC2(CC1)CC(=O)c1ccccc1O2 (stereo not drawn) | inactive
34 | CCc1ccc2[nH]c(O)c(N=Nc3nc(-c4ccccc4)cs3)c2c1 | inconclusive: 17.8 µM [inhibitor, single point]
35 | Cc1ccc(-c2nc(Nc3ccc(N4CCOCC4)cc3)c3ccccc3n2)cc1 | active: 31.6 µM
36 | CCC(=O)c1c[nH]c(C(=O)NCCCn2ccnc2)c1 | inconclusive: 100 µM [inhibitor, single point]
37 | CCc1ccc(C2C(C#N)=C(N)N(N(C)C)C3=C2C(=O)CCC3)cc1 (stereo not drawn) | inactive
38 | COc1cc(NS(=O)(=O)c2ccc(NS(=O)(=O)c3ccc(NC(C)=O)cc3)cc2)nc(OC)n1 | inactive
39 | CC(C)Cn1c(=O)c2sccc2n2c(CCCC(=O)NCCc3ccc(Cl)cc3)nnc12 | inconclusive: 79.4 µM [inhibitor, single point]
40 | CC1CCCC(NC(=O)COC(=O)COc2ccc(Cl)cc2)C1C (stereo not drawn) | inactive
41 | O=C(CCc1nnc2ccc(NCc3ccco3)nn12)N1CCCCC1 | inconclusive: 70.8 µM [inhibitor, single point]
42 | COc1cc(C(=O)Nc2nc3ccc(C)cc3s2)ccc1OCc1c(C)noc1C | inconclusive: 100 µM [inhibitor, single point]
43 | CCOc1cc(N2CCOCC2)c(OCC)cc1NC(=O)c1ccc(C)s1 | inconclusive: 35.5 µM [inhibitor, partial curve, poor fit]
44 | c1ccc2c(c1)CCN(c1nc3cc4c(cc3s1)OCO4)C2 | inconclusive: 25.1 µM [inhibitor, full curve]
45 | CN1CC[n+]2c(CN3C(=O)c4ccccc4C3=O)csc21 | inconclusive: 89.1 µM [inhibitor, single point]
46 | COc1ccc2c(c1)C(=NN)c1cc(OC)ccc1-2 | active: 39.8 µM
47 | CS(=O)(=O)N1CCN(c2ccc([N+](=O)[O-])c(NCc3cccnc3)c2)CC1 | inconclusive: 89.1 µM [inhibitor, single point]
48 | O=c1c2cn[nH]c2[nH]c(=S)n1-c1ccccc1 | inactive
49 | Nc1ncnc2oc(-c3ccco3)c(-c3ccco3)c12 | active: 56.2 µM
50 | CCNC(=O)c1sc(=S)n(CC)c1N | inconclusive: 89.1 µM [inhibitor, single point]

Row | SMILES | Potency
51 | CC(=O)Nc1ccc(CN2CCCC(C(=O)c3ccc(C(F)(F)F)cc3)C2)cc1 (stereo not drawn) | inactive
52 | O=C(Nc1ccccc1C(=O)Nc1ccncc1)c1ccc([N+](=O)[O-])cc1 | inconclusive: 79.4 µM [inhibitor, single point]
53 | COc1cccc(NC(=O)c2cc([N+](=O)[O-])ccc2N2CCN(C)CC2)c1 | inconclusive: 63.1 µM [inhibitor, partial curve, poor fit]
54 | COc1ccc2[nH]cc(CCNC(=O)Cc3ccc(Br)cc3)c2c1 | inconclusive: 39.8 µM [inhibitor, partial curve]
55 | COc1ccc(OC)c2sc(N3CCN(C(=O)c4ccc5c(c4)CCCC5)CC3)nc12 | active: 39.8 µM
56 | COc1ccc(C(=O)COC(=O)CNC(=O)c2ccc(Cl)cc2Cl)c(OC)c1 | inconclusive: 89.1 µM [inhibitor, single point]
57 | CCC1CCc2nc3sc(C(=O)Nc4ccc(C)cc4)c(N)c3cc2C1 (stereo not drawn) | inactive
58 | Cc1ccccc1C(=O)Nc1sc(C)c(C)c1C(=O)c1ccccc1 | inconclusive: 39.8 µM [inhibitor, partial curve]
59 | Cc1ccc(N2CCN(S(=O)(=O)N(C)C)CC2)cc1C | inconclusive: 89.1 µM [inhibitor, partial curve]
60 | CCOC(=O)c1c(NC(=O)COC(=O)c2ccccn2)sc(C(=O)N(C)C)c1C | inconclusive: 89.1 µM [inhibitor, single point]
61 | Cc1ccc(Nc2nc(N)nc(CSC(=S)N3CCN(c4ccccc4)CC3)n2)cc1 | inconclusive: 25.1 µM [inhibitor, full curve, poor fit]
62 | CC(C)CN(CC(C)C)S(=O)(=O)N1CCC(C(=O)NCc2ccc3c(c2)OCO3)CC1 | inactive
63 | CCOC(=O)/C(=N\Nc1ccccc1)P(=O)(c1ccccc1)c1ccccc1 | inconclusive: 56.2 µM [inhibitor, partial curve]
64 | Cc1onc(-c2ccccc2Cl)c1C(=O)N1CC(C)OC(C)C1 (stereo not drawn) | inactive
65 | COC(=O)C1=C(C)N(CCc2ccc(OC)cc2)C(=O)C1 | inactive
66 | CC(C)Cc1nc(N2CCN(C(=O)c3ccco3)CC2)c(C#N)c2c1CCCC2 | inconclusive: 44.7 µM [inhibitor, partial curve]
67 | COc1ccc(Nc2nc(-c3cccc(OC)c3O)nc3ccccc23)cc1 | active: 39.8 µM
68 | CCCN(CC(=O)Nc1ccccc1OC)C(=O)c1cc2ccccc2o1 | inactive
69 | NS(=O)(=O)c1ccc(N2CCCCCC2)c([N+](=O)[O-])c1 | inconclusive: 56.2 µM [inhibitor, partial curve]
70 | CCCc1c(C(=O)N/N=C/c2cccc(OCc3ccc(F)cc3)c2)nnn1-c1nonc1N | inconclusive: 56.2 µM [inhibitor, partial curve]
71 | COc1cccc(N=Nc2ccc3cccnc3c2O)c1 | active: 12.6 µM
72 | O=[N+]([O-])c1cccc(-c2c(-c3ccccc3)ncc3ccc(F)cc23)c1 | inconclusive: 35.5 µM [inhibitor, partial curve]
73 | CC(C)(C)C1CCc2nc(NC(=O)COc3ccccc3[N+](=O)[O-])sc2C1 (stereo not drawn) | inactive
